# Reference: PubChem BioAssay AID1460 (National Center for Advancing Translational Sciences (NCATS), 2008)
# Among all 270,000 compounds or so, about 5,800 (2.1%) were called active. Inconclusive means that the source gave no clear call. Such entries were picked first, then a sample of the others. The call rests on the fitted dose curve; in most records, active means well fitted inhibition curve with a large enough effect; inconclusive means small, poorly fitted or top-dose-only effect; inactive means flat fitted curve, though single readings scatter. A potency beside an inconclusive call is a rough fit, not a confirmed value.
# Molecular target: Microtubule-associated protein tau (Homo sapiens) (UniProt P10636)
# Assay: qHTS for Inhibitors of Tau Fibril Formation, Thioflavin T Binding; further: nearly all actives have a fitted effect of over 55% in size
# Settings: recombinant tau K18 P301L (four-repeat tau fragment), heparin-induced fibrillization, ThT fluorescence; series mostly up to 57.4 µM; activity, negative = inhibition: at the top concentration
# Procedure, shortened: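 Aggregation was driven by heparin (20 uM final) acting on recombinant tau […] bearing P301L in 100 mM sodium acetate pH 7; fibrils were detected with Thioflavin T.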
# On the % scale 0 is the no-effect control and ±100 the full control effect; potency means the concentration at half of the fitted maximal effect; tags describe the fitted curve by direction and shape.
# Sequence of UniProt P10636 (P10636 whole entry, looked up): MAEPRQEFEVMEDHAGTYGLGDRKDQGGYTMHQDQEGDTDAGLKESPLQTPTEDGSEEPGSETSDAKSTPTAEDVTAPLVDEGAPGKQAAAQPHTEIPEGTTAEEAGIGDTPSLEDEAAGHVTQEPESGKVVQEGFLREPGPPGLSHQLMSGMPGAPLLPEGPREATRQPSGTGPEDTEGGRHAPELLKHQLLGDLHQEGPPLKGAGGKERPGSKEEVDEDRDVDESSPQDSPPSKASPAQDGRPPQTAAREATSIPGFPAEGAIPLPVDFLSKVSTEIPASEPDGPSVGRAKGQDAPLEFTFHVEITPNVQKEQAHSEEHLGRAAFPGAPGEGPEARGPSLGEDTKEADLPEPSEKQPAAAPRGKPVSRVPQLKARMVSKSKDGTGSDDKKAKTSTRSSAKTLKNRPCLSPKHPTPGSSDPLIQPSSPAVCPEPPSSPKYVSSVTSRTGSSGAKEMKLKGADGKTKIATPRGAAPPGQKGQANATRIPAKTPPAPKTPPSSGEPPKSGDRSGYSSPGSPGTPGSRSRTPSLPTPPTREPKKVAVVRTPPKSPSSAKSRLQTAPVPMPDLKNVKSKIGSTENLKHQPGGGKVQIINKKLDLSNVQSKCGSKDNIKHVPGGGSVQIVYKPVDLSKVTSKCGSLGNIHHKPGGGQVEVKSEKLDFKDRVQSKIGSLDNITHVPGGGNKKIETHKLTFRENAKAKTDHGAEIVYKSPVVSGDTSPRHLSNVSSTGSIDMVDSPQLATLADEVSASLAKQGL
SMILES,"activity, negative = inhibition",Potency
CCCOc1ccc2[nH]cc(C(=O)O)c(=O)c2c1,inactive: -6.61%,–
CN(C)c1ccc(NC(=O)Cn2nnc3sc4c(c3c2=O)CCC(C(C)(C)C)C4)cc1 (stereo unspecified),–,"inconclusive: 14.1 µM [inhibitor, partial curve]"
O=C1COc2ccc(-c3csc(=Nc4ccc(OC(F)F)cc4)n3CC3CCCO3)cc2N1 (stereo unspecified),–,"inconclusive: 28.2 µM [inhibitor, single point]"
COc1cccc(N2CCN(C(=O)c3ccc(=O)oc3)CC2C)c1 (stereo unspecified),–,"inconclusive: 22.4 µM [inhibitor, single point]"
O=S(=O)(c1ccc(Cl)cc1)c1nnn2c1nc(NC1CCCCC1)c1sccc12,inactive: 13%,–
CC1OC(Nc2ccc(N=Nc3ccccc3)cc2)C(O)C(O)C1O (stereo unspecified),–,"inconclusive: 15.8 µM [inhibitor, partial curve]"
Cc1ccc2nc(SCC(=O)NCc3ccco3)[nH]c2c1,inactive: -11.5%,–
CCCCOc1ccc(C(=O)Nc2ccc(N3CCN(C(C)=O)CC3)cc2)cc1,–,"inconclusive: 0.794 µM [inhibitor, full curve]"
O=C1c2cccc3c(N4CCCCC4)ccc(c23)C(=O)N1c1ccccn1,–,"inconclusive: 20 µM [inhibitor, partial curve]"
COCCCn1c(=O)/c(=C\c2cccc(OC)c2OC)s/c1=C(/C#N)C(=O)Nc1ccc(C(=O)O)cc1,–,"inconclusive: 35.5 µM [inhibitor, single point]"
COc1ccc(NC(=O)CSC2=Nc3ccccc3N=C(c3ccc(F)cc3)C2)cc1OC,inactive: -6.05%,–
COc1ccc(Sc2ncnc3onc(C)c23)cc1,–,"inconclusive: 11.2 µM [inhibitor, partial curve]"
O=[N+]([O-])c1cc2c(cc1/C=N/Nc1nc(Nc3ccccc3)nc(N3CCCCC3)n1)OCO2,–,"inconclusive: 0.891 µM [inhibitor, partial curve]"
COC(=O)C1C/C(=N\NS(=O)(=O)c2ccc(C)cc2)c2ccsc2C1 (stereo unspecified),inactive: -2.81%,–
CCC1=C2CC[C@H]3C(=O)N(C)C(=O)[C@H]3[C@H]2[C@@]2(Cc3ccccc3)C(=NCCc3c[nH]c4ccccc34)OC(=O)N2C1=O,–,"inconclusive: 39.8 µM [inhibitor, single point]"
CCc1ccc(/C=C2\SC(N3CCOCC3)=NC2=O)cc1,inactive: -5.76%,–
O=C(CN1CCN(Cc2ccc(Cl)cc2)CC1)N/N=C/C=C/c1ccccc1[N+](=O)[O-],inactive: -12.6%,–
COc1cc2c(cc1OC)-c1cc3ccc4c(c3c[n+]1CC2)OCO4,–,active: 15.8 µM
CCOc1cc(C(=O)Nc2ccc(NC(=O)c3cc4ccccc4o3)c(OC)c2)cc(OCC)c1OCC,inactive: -6.35%,–
COC(=O)Cc1ccc2sc(-c3ccccc3)nc2c1,inactive: -5.34%,–
CCOc1ccc(/C=C2/SC(=O)NC2=S)cc1,–,active: 3.16 µM
COc1cc(C=O)ccc1OCCSc1ccc(Cl)cc1,–,"inconclusive: 25.1 µM [inhibitor, single point]"
CCOc1ccc(CNC(=O)c2ccc3[nH]c(C)c(C)c3c2)cc1OC,–,"inconclusive: 22.4 µM [inhibitor, single point]"

SMILES,"activity, negative = inhibition",Potency
CC/C(C)=N/Nc1nc(-c2cc3cccc(OC)c3oc2=O)cs1,–,active: 17.8 µM
C=CCN1C(=O)/C(=C\c2ccc(Oc3nc(N4CCOCC4)nc(N4CCOCC4)n3)c(OC)c2)SC1=S,–,"inconclusive: 31.6 µM [inhibitor, single point]"
O=C(NNc1nc(-c2ccc(Br)cc2)cs1)c1ccco1,–,"inconclusive: 14.1 µM [inhibitor, partial curve]"
Cc1cc(NC(=O)CCc2nc3cccnc3n2Cc2cccs2)ccc1Br,–,"inconclusive: 4.47 µM [inhibitor, partial curve]"
CCOc1ccc(N/N=C(/C#N)C(N)=O)cc1,–,"inconclusive: 11.2 µM [inhibitor, partial curve]"
COc1ccc(/C=C/c2ccncc2)cc1OC,–,"inconclusive: 2 µM [inhibitor, partial curve]"
CCN1CCN(Cc2ccc(NC(=O)c3cc(NC(=O)c4ccno4)cc(OC)c3)cc2C(F)(F)F)CC1,inactive: 14.4%,–
Cc1nnc(SCC(=O)NCC2CCCO2)n1-c1ccccc1 (stereo unspecified),inactive: -0.64%,–
O=C(O)c1ccc2nc(-c3cc4cc(Cl)ccc4oc3=O)[nH]c2c1,–,"inconclusive: 14.1 µM [inhibitor, partial curve]"
COc1cccc(C2CC(c3cccs3)=NN2C(=S)Nc2ccccc2)c1OC (stereo unspecified),inactive: 1.21%,–
COc1ccc(-n2cnc3cc(C(=O)NC4CCCCCC4)ccc32)cc1,inactive: -17.2%,–
Cc1ccc2c(c1)C1(C(=O)N2)N2CCCC2C(C(=O)c2ccc3ccccc3c2)C12C(=O)Nc1ccccc12 (stereo unspecified),–,"inconclusive: 17.8 µM [inhibitor, partial curve]"
Cc1cccc(Nc2c(-c3ccsc3)nc3nc(C)cc(C)n23)c1,inactive: -14.9%,–
Cn1c(C(=O)OCC(=O)NCCc2ccccc2)cc2sccc21,–,"inconclusive: 3.55 µM [inhibitor, single point]"
Cc1ccc(/C=N/c2sc(Cc3ccccc3)c(C)c2C(N)=O)o1,–,"inconclusive: 11.2 µM [inhibitor, partial curve]"
Cc1ccn2c(=O)cc(COc3ccc(NC(=O)COc4ccc(C)c(C)c4)cc3)nc2c1,–,"inconclusive: 7.94 µM [inhibitor, partial curve]"
O=C(NNC(=S)Nc1cccc(C(F)(F)F)c1)c1ccc(Cl)cc1Cl,–,"inconclusive: 28.2 µM [inhibitor, single point]"
COc1cc(C2OCC3C(c4ccc(OC5OC(CO)C(O)C(O)C5O)c(OC)c4)OCC23)ccc1O (stereo unspecified),inactive: -19.5%,–
COc1ccc(C)cc1NC(=O)c1cnc2ccc(C)cn2c1=O,inactive: -14.4%,–
Cc1cc2c(cc3c(SCc4ccc(Cl)cc4)nncn32)o1,–,"inconclusive: 22.4 µM [inhibitor, partial curve]"
CCOC(=O)c1c(C)[nH]c(NC(=O)Nc2c(C)n(C)n(-c3ccccc3)c2=O)c1C,–,"inconclusive: 14.1 µM [inhibitor, partial curve]"
COc1ccc(-c2nc3cc(C)ccn3c2NC(=O)c2cccc(F)c2)cc1,inactive: -15.5%,–
Cn1c(=O)c2c(-c3ccc(Br)cc3)n(Cc3ccc(F)cc3)cc2n(C)c1=O,–,"inconclusive: 31.6 µM [inhibitor, single point]"
